Common to all, as to assay: Viability of human cancer cell lines after 72 h of drug (GDSC screen)
Compound in one assay: CO[C@H]1C[C@@H]2CC[C@@H](C)[C@@](O)(O2)C(=O)C(=O)N2CCCC[C@H]2C(=O)O[C@H]([C@H](C)C[C@@H]2CC[C@@H](OC(=O)C(C)(CO)CO)[C@H](OC)C2)CC(=O)[C@H](C)/C=C(\C)[C@@H](O)[C@@H](OC)C(=O)[C@H](C)C[C@H](C)/C=C/C=C/C=C/1C [Temsirolimus]
Particulars: top dose 0.2 µM. The procedure: (§1)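 Human cancer cell lines in 384-well plates, medium with 10% serum, drug for 72 h over a 256-fold dose range (nine 2-fold or five 4-fold steps up to the top dose). Adherent lines were fixed and stained with the nucleic acid dye Syto60, suspension lines read with resazurin; signal relative to control wells, capped at 0 and 100%. One two-parameter sigmoid per drug and line, fitted in a mixed model over all curves with the slope shared within a line.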

Compound in the next assay: CC(=O)O[C@@H]1[C@@H](OC(C)=O)[C@@H](O)[C@H](Oc2c(-c3ccc(O)cc3)oc3cc(O)cc(O)c3c2=O)O[C@H]1C [SL 0101-1]
Particulars: top dose 10 µM; top dose inferred. The procedure:
as §1

Compound in another assay: C=CC(=O)Nc1ccc(C(=O)c2sc(Nc3ccc(N4CCN(C)CC4)cc3OC)nc2N)cc1 [XMD15-27]
Particulars: top dose 10.24 µM; top dose inferred. The procedure: as §1

IC50 is the fitted dose that halves viability relative to control wells, and lower means more sensitive; a limit (>, <) means that the fit lies beyond the doses tested. AUC, from the same fit, is the share of area under the viability curve across the 256-fold dose range; values near 1 show little effect. For part of these data: Where the top dose is marked as inferred, it comes from the curve model; the source does not state it. Bounds are passed on as bounds.

As usually defined, the IC50 is the point on the concentration scale where inhibition reaches its midpoint. For D-542MG (glioma, adherent), the AUC is 0.83 with Temsirolimus, 0.984 with SL 0101-1 and 0.984 with XMD15-27. In addition, the figures for the IC50 with Temsirolimus, with SL 0101-1 and in the assay with XMD15-27 were 0.165 µM, more than 10 µM and more than 10.2 µM, respectively.

In the case of D-566MG (glioma, adherent), the AUC with Temsirolimus is 0.43; with SL 0101-1, 0.985; with XMD15-27, 0.967. Also, the IC50 was 0.00808 µM with Temsirolimus, more than 10 µM with SL 0101-1 and more than 10.2 µM with XMD15-27.

Turning to DAN-G (pancreas, adherent), the AUC in the assay with Temsirolimus was 0.922; with SL 0101-1 it was 0.987; with XMD15-27, 0.992. The IC50 is more than 0.2 µM in the assay with Temsirolimus, more than 10 µM in the assay with SL 0101-1 and more than 10.2 µM with XMD15-27.

Turning to DB (B-cell lymphoma, suspension), the AUC with Temsirolimus stood at 0.42; with SL 0101-1 it was 0.911; with XMD15-27, 0.977. Moreover, the results for the half-maximal inhibitory concentration (IC50) with Temsirolimus, in the assay with SL 0101-1 and in the assay with XMD15-27 were 0.00734 µM, more than 10 µM and more than 10.2 µM, respectively.

In the case of DBTRG-05MG (glioma, adherent), the AUC was found to be 0.718 in the assay with Temsirolimus, 0.984 with SL 0101-1 and 0.968 with XMD15-27. Besides, the values for the IC50 with Temsirolimus, in the assay with SL 0101-1 and with XMD15-27 were 0.0584 µM, more than 10 µM and more than 10.2 µM, respectively.

As to DEL (lymphoid neoplasm, suspension), the AUC stood at 0.991 with Temsirolimus, 0.994 with SL 0101-1 and 0.868 in the assay with XMD15-27. Besides, the IC50 with Temsirolimus was more than 0.2 µM; with SL 0101-1, more than 10 µM; with XMD15-27, 6.22 µM.

Regarding DG-75 (Burkitt lymphoma, suspension), the AUC is 0.435 in the assay with Temsirolimus, 0.902 in the assay with SL 0101-1 and 0.987 with XMD15-27. In addition, the figures for the IC50 with Temsirolimus, with SL 0101-1 and with XMD15-27 were 0.00827 µM, more than 10 µM and more than 10.2 µM, respectively.

Turning to DJM-1 (skin, adherent), the AUC stood at 0.961 with Temsirolimus, 0.983 in the assay with SL 0101-1 and 0.989 with XMD15-27. The results for the IC50 in the assay with Temsirolimus, with SL 0101-1 and in the assay with XMD15-27 were more than 0.2 µM, more than 10 µM and more than 10.2 µM, respectively.

With DK-MG (glioma, adherent), the AUC with Temsirolimus was 0.839; in the assay with SL 0101-1 it was 0.97; with XMD15-27, 0.862. The IC50 with Temsirolimus is more than 0.2 µM; with SL 0101-1, more than 10 µM; with XMD15-27, more than 10.2 µM.

Consider “DMS-79 (small cell lung carcinoma, suspension)”, for which the AUC amounted to 0.961 with Temsirolimus, 0.985 in the assay with SL 0101-1 and 0.983 with XMD15-27. Moreover, the IC50 with Temsirolimus was more than 0.2 µM; in the assay with SL 0101-1, more than 10 µM; with XMD15-27 it was more than 10.2 µM.

On to “DMS-114 (small cell lung carcinoma, adherent)”, for which the AUC was determined as 0.705 in the assay with Temsirolimus, 0.98 with SL 0101-1 and 0.981 with XMD15-27. Also, the IC50 in the assay with Temsirolimus is 0.0521 µM; with SL 0101-1, more than 10 µM; with XMD15-27 it was more than 10.2 µM.

As to “DMS-273 (small cell lung carcinoma, adherent)”, the values for the AUC with Temsirolimus, with SL 0101-1 and with XMD15-27 were 0.915, 0.952 and 0.985, respectively. Moreover, the half-inhibitory concentration (IC50) was more than 0.2 µM with Temsirolimus, more than 10 µM in the assay with SL 0101-1 and more than 10.2 µM with XMD15-27.

On to DND-41 (T-cell leukaemia, suspension), for which the AUC was 0.903 with Temsirolimus, 0.979 in the assay with SL 0101-1 and 0.944 in the assay with XMD15-27. Further, the IC50 is more than 0.2 µM in the assay with Temsirolimus, more than 10 µM with SL 0101-1 and more than 10.2 µM in the assay with XMD15-27.

As for DOK (head and neck, adherent), the AUC with Temsirolimus was found to be 0.626; in the assay with SL 0101-1 it was 0.904; with XMD15-27, 0.976. Moreover, the IC50 was 0.0331 µM with Temsirolimus, more than 10 µM with SL 0101-1 and more than 10.2 µM with XMD15-27.

Regarding DOV13 (ovary, adherent), the AUC turned out to be 0.715 with Temsirolimus, 0.982 with SL 0101-1 and 0.983 with XMD15-27. In addition, the results for the IC50 in the assay with Temsirolimus, in the assay with SL 0101-1 and with XMD15-27 were 0.0563 µM, more than 10 µM and more than 10.2 µM, respectively.

With DSH1 (bladder, adherent), the AUC in the assay with Temsirolimus is 0.871; in the assay with SL 0101-1, 0.97; with XMD15-27, 0.98. Further, the IC50 with Temsirolimus is 0.175 µM; in the assay with SL 0101-1, more than 10 µM; in the assay with XMD15-27, more than 10.2 µM.

DU-145 (prostate, adherent): the AUC is 0.907 with Temsirolimus, 0.944 with SL 0101-1 and 0.984 with XMD15-27. Moreover, the results for the IC50 in the assay with Temsirolimus, in the assay with SL 0101-1 and with XMD15-27 were more than 0.2 µM, more than 10 µM and more than 10.2 µM, respectively.

Take DU-4475 (breast, suspension): the AUC in the assay with Temsirolimus turned out to be 0.728; with SL 0101-1, 0.962; with XMD15-27, 0.992. Moreover, the IC50 with Temsirolimus is 0.048 µM; with SL 0101-1, more than 10 µM; in the assay with XMD15-27, more than 10.2 µM.
